The source of these data is the supplement of paper PMC11125491.

± gives the standard deviation of the averaged measurements. Growth of baker's yeast expressing single-residue variants of Pneumocystis jirovecii dihydrofolate reductase in 8.8 or 44 µM methotrexate (about 75% and 90% inhibition of the wild type). Selection coefficient per generation; 0 = like wild type, above 0 = less sensitive, below 0 = more sensitive or loss of function. No active / inactive call per row; the paper calls resistant above 0.220 (8.8 µM) or 0.243 (44 µM) together with a significance test. At 44 µM about 15% of codons end with one read or none, so the lowest values are floors (replicate rank correlation 0.74; 0.94 at 8.8 µM).

The chains are these.
B1: UniProt A0EPZ9; numbered along this chain (parent)
chain: MDWQKSLTLIVALTLSRGIGLKNDLPWKLKSDMMFFSRVTSGLLVTRSTGQMNVVLMGRKTWESLPAHSRPLKNRINVVISRQEVLDLGGGAYHARSLDDALALLSQIYDSTSKIQLNRVFVIGGGELCKAAMEHSRLNRIIATVIHNEVDCDVFFPIDFRSSQSCLPWRKQDHSVLEAWVGSKVPQGKINENGFIYEFEMWIRDI

The variants in the data set derive from B1. The experiment in a line: selection coefficient against synonymous wild-type codons (log2 per generation); higher = faster growth than wild type. To be noted: with Saccharomyces cerevisiae carrying the variant on a plasmid. The procedure:
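Pooled growth of yeast carrying single-residue variants of P. jirovecii dihydrofolate reductase (own DFR1 gene intact), two passages at 30 °C, three cultures, sequenced before and after. Codons with under 15 starting reads are left out; codons of one change are averaged.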

Take N191P: the “selection coefficient against synonymous wild-type codons (log2)” value (shortened to “selection coefficient … (log2)”) reads like this: (methotrexate 8.8 µM) -0.195 ± 0.071; (methotrexate 44 µM) -0.248 ± 0.14.
Regarding N191V, the “selection coefficient … (log2)” value by setting is: (methotrexate 8.8 µM) -0.0496 ± 0.05; (methotrexate 44 µM) -0.118 ± 0.071.
As to N191G, the “selection coefficient … (log2)” value runs as follows: (methotrexate 8.8 µM) -0.105 ± 0.047; (methotrexate 44 µM) -0.147 ± 0.068.
For Y93G, the “selection coefficient … (log2)” value is -0.705 ± 0.11 (methotrexate 8.8 µM) and -0.237 ± 0.072 (methotrexate 44 µM).
As to Y93Q, the “selection coefficient … (log2)” value is -0.424 ± 0.12 (methotrexate 8.8 µM) and -0.136 ± 0.056 (methotrexate 44 µM).
For R137C the same measures were 0.0354 ± 0.014 and 0.0709 ± 0.05.
As to N74L, the “selection coefficient … (log2)” value (methotrexate 8.8 µM) is -0.646 ± 0.13 and the “selection coefficient … (log2)” value (methotrexate 44 µM) is -0.253 ± 0.098.
For T144E the same measures were -0.668 ± 0.091 and -0.215 ± 0.081.
Take N118E: the “selection coefficient … (log2)” value is, setting by setting: (methotrexate 8.8 µM) -0.0648 ± 0.033; (methotrexate 44 µM) -0.0995 ± 0.19.
Regarding N118Q, the “selection coefficient … (log2)” value runs as follows: (methotrexate 8.8 µM) -0.137 ± 0.049; (methotrexate 44 µM) -0.0636 ± 0.026.
For the variant N118M, the “selection coefficient … (log2)” value (methotrexate 8.8 µM) was 0.0884 ± 0.014 and the “selection coefficient … (log2)” value (methotrexate 44 µM) worked out at 0.162 ± 0.043.
For M34C the same measures were -0.165 ± 0.12 and -0.0127 ± 0.061.
For M201Q the same measures were -0.0786 ± 0.066 and -0.287 ± 0.047.
In the case of M201L, the “selection coefficient … (log2)” value was -0.0846 ± 0.054 (methotrexate 8.8 µM) and -0.142 ± 0.16 (methotrexate 44 µM).
On the same counts, the results for L104W are -0.311 ± 0.089 and -0.192 ± 0.14.
F35G: the “selection coefficient … (log2)” value is -0.0617 ± 0.018 (methotrexate 8.8 µM) and 0.287 ± 0.028 (methotrexate 44 µM).
On the same counts, the results for F35P are -0.292 ± 0.1 and -0.128 ± 0.13.
For F35W the same measures were -0.0347 ± 0.051 and -0.00548 ± 0.052.
For S48N, the “selection coefficient … (log2)” value reads like this: (methotrexate 8.8 µM) 0.0625 ± 0.045; (methotrexate 44 µM) 0.0332 ± 0.068.
For L44M, the “selection coefficient … (log2)” value turned out to be 0.0321 ± 0.035 (methotrexate 8.8 µM) and 0.0149 ± 0.039 (methotrexate 44 µM).
On to E178D, for which the “selection coefficient … (log2)” value is -0.0545 ± 0.049 (methotrexate 8.8 µM) and -0.0427 ± 0.03 (methotrexate 44 µM).
For F121R the same measures were -0.682 ± 0.071 and -0.202 ± 0.059.
On the same counts, the results for K5C are -0.295 ± 0.033 and -0.285 ± 0.19.
For R140F the same measures were -0.199 ± 0.083 and -0.187 ± 0.046.
Take R140H: the “selection coefficient … (log2)” value reads like this: (methotrexate 8.8 µM) 0.0205 ± 0.015; (methotrexate 44 µM) 0.0952 ± 0.09.
In the case of D205L, the “selection coefficient … (log2)” value is, setting by setting: (methotrexate 8.8 µM) -0.456 ± 0.14; (methotrexate 44 µM) -0.253 ± 0.32.
For W202F the same measures were 0.0926 ± 0.057 and 0.105 ± 0.079.
In the case of S69K, the “selection coefficient … (log2)” value reads like this: (methotrexate 8.8 µM) -0.0229 ± 0.066; (methotrexate 44 µM) -0.174 ± 0.16.
Take S69V: the “selection coefficient … (log2)” value is, setting by setting: (methotrexate 8.8 µM) -0.0653 ± 0.0087; (methotrexate 44 µM) -0.0855 ± 0.13.
For D110T the same measures were -0.0683 ± 0.062 and -0.0816 ± 0.16.
For F160K the same measures were 0.478 ± 0.05 and 0.518 ± 0.059.
For G58A the same measures were 0.322 ± 0.019 and 0.378 ± 0.051.
Take G58W: the “selection coefficient … (log2)” value by setting is: (methotrexate 8.8 µM) -0.552 ± 0.038; (methotrexate 44 µM) -0.304 ± 0.038.
For S175M the same measures were -0.148 ± 0.083 and -0.257 ± 0.11.
For V154W the same measures were -0.0494 ± 0.063 and -0.139 ± 0.12.
For R47K, the “selection coefficient … (log2)” value is, setting by setting: (methotrexate 8.8 µM) 0.0452 ± 0.034; (methotrexate 44 µM) -0.12 ± 0.12.
On the same counts, the results for R47N are 0.118 ± 0.016 and 0.14 ± 0.044.
For S37P the same measures were 0.617 ± 0.04 and 0.77 ± 0.046.
Consider S37H, for which the “selection coefficient … (log2)” value runs as follows: (methotrexate 8.8 µM) -0.295 ± 0.042; (methotrexate 44 µM) -0.0337 ± 0.088.
On the same counts, the results for R204K are 0.0549 ± 0.051 and 0.00733 ± 0.16.
On the same counts, the results for I123G are -0.195 ± 0.03 and -0.0354 ± 0.24.
For the variant S183P, the “selection coefficient … (log2)” value is -0.148 ± 0.089 (methotrexate 8.8 µM) and -0.319 ± 0.12 (methotrexate 44 µM).
Consider T8I, for which the “selection coefficient … (log2)” value by setting is: (methotrexate 8.8 µM) -0.246 ± 0.1; (methotrexate 44 µM) -0.097 ± 0.06.
As to W169I, the “selection coefficient … (log2)” value by setting is: (methotrexate 8.8 µM) -0.242 ± 0.063; (methotrexate 44 µM) -0.2 ± 0.12.
As for W169T, the “selection coefficient … (log2)” value is, setting by setting: (methotrexate 8.8 µM) -0.399 ± 0.089; (methotrexate 44 µM) -0.423 ± 0.061.
On the same counts, the results for H147C are -0.111 ± 0.028 and -0.225 ± 0.021.
In the case of I76N, the “selection coefficient … (log2)” value is -0.485 ± 0.052 (methotrexate 8.8 µM) and 0.0161 ± 0.1 (methotrexate 44 µM).
Turning to I76A, the “selection coefficient … (log2)” value is, setting by setting: (methotrexate 8.8 µM) -0.58 ± 0.13; (methotrexate 44 µM) -0.121 ± 0.1.
Take E149M: the “selection coefficient … (log2)” value by setting is: (methotrexate 8.8 µM) -0.334 ± 0.064; (methotrexate 44 µM) -0.422 ± 0.1.
As to D87V, the “selection coefficient … (log2)” value runs as follows: (methotrexate 8.8 µM) -0.328 ± 0.076; (methotrexate 44 µM) -0.196 ± 0.16.
Take D87I: the “selection coefficient … (log2)” value by setting is: (methotrexate 8.8 µM) -0.733 ± 0.034; (methotrexate 44 µM) -0.143 ± 0.11.
On the same counts, the results for A95F are -0.634 ± 0.1 and -0.201 ± 0.086.
On the same counts, the results for H174I are -0.237 ± 0.15 and 0.111 ± 0.49.
For H174T the same measures were -0.0664 ± 0.099 and -0.269 ± 0.11.
As to H174E, the “selection coefficient … (log2)” value is, setting by setting: (methotrexate 8.8 µM) -0.0521 ± 0.058; (methotrexate 44 µM) -0.288 ± 0.12.
Turning to H174C, the “selection coefficient … (log2)” value was -0.156 ± 0.083 (methotrexate 8.8 µM) and -0.124 ± 0.036 (methotrexate 44 µM).
On the same counts, the results for A67F are -0.0873 ± 0.16 and -0.0323 ± 0.15.
With A67S, the “selection coefficient … (log2)” value by setting is: (methotrexate 8.8 µM) -0.0527 ± 0.09; (methotrexate 44 µM) -0.0972 ± 0.095.
